Source: the supplement of paper PMC3334620
In all, about 33,000 sequences were measured (“E-score (-0.5 to 0.5)”: median about -0.04, highest 2% from about 0.36 on). Some of the results follow.

target: T1, Hmlalpha2 (UniProt P0CY09); test: PBM E-score (8-mer binding enrichment) (E-score (-0.5 to 0.5)); higher = stronger / more preferred TF binding; most listed sequences are background and not binding sites; settings: protein concentration: 200 nM; construct: GST-full length
T1 sequence: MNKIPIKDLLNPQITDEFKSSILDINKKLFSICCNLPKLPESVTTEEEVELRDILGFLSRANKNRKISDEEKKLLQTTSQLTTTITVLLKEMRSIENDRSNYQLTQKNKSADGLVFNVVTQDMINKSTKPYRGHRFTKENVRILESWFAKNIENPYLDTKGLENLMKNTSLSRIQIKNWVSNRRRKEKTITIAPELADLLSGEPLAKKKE
Method: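 Universal 'all 10-mer' protein binding microarrays (Agilent AMADID 015681) probed with GST-tagged S. cerevisiae TFs (full-length or DBD) made by in vitro transcription/translation (PURExpress), about 100-200 nM. Bound TF was detected with fluorescent anti-GST. Each ungapped 8-mer (which stands for itself and its reverse complement) is scored by the PBM enrichment score (E-score), a modified Wilcoxon-Mann-Whitney statistic from -0.5 to +0.5, computed with the Universal PBM Analysis Suite. Scale: above 0.35 generally sequence-specific binding.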

Sequence	PBM E-score
CGAACTCG	-0.0641
CCTCAGCA	-0.254
GAGAGGAC	-0.129
CCGTCGTA	-0.0843
CCTTAGAG	-0.462
CCTATTCA	-0.319
TCTACTCA	0.141
AACTCCCC	-0.0491
CACTTGGC	-0.0529
CCGTAATC	-0.00299
AAGGACCC	-0.342
AAGACCCT	-0.118
GAAAATCC	0.00022
ACGAGATA	0.152
GTATGGAC	-0.0462
GGATATCA	-0.121
GCGCACGA	-0.075
TCTCCACA	-0.126
CAGAGGCC	-0.259
CACTGCGG	-0.172
AACAATGC	0.247
ACAGAACG	0.00788
AGGTCCGG	-0.045
CTCCGCTA	-0.267
AAGTCCGC	-0.0902

Sequence	PBM E-score
GCTACCGA	-0.172
CGCCTGCC	-0.194
AGGATCCA	-0.265
GCTCTCAC	-0.251
CCTCACCC	-0.226
AAGCTCAT	-0.159
ATATCGTC	0.0518
GCAAATCA	0.0387
AACGCTAC	-0.0489
AACCTCTT	0.193
ACGCTGCA	-0.0419
CCGAGAAC	-0.068
CGCTATCA	-0.21
AAATAGCG	0.0875
CAACCGTA	-0.00637
GGATCGAA	0.0758
GACGCACC	-0.211
CAAAACTA	0.291
AATCCTCA	-0.0398
AAGCTGCC	-0.255
ACCTTGTA	0.402
CACGAAAA	0.197
GTCGGTGA	-0.299
GATCCCTA	-0.0824
AGGCCTAA	-0.115

Sequence	PBM E-score
ACACCTTG	0.206
AACTCCCA	-0.257
CCGTTTTC	-0.0908
CCCCTGTC	-0.152
ATAATATG	0.117
GATGACTA	-0.0544
ATACTAGC	0.0167
GGATCAAC	0.105
CAATGTAC	0.217
CGGCTAAC	-0.00719
GATTTCCC	-0.183
AGCGGACT	-0.111
AACGTTAA	0.28
ATTAGGAA	0.0653
GAATGTAC	0.16
ATTTACAC	0.479
CCCCATTA	0.0001
CCGGCCAG	-0.224
ATCCGGAC	-0.0342
ATTGCTGA	-0.00766
GATAGAAC	-0.0452
AGATCTTC	-0.0516
CCCGGGGA	-0.262
ATAAAAAT	0.145
CTGTAATA	0.286

Sequence	PBM E-score
ATTGGTTG	-0.119
AAGAACGC	0.18
CTCGAGCC	-0.0233
ACAGGTCC	0.0173
AGCTTGGA	-0.292
AATATCAA	0.0209
AACGTCCT	-0.0366
AATTGCGA	-0.153
CGGTAGAC	-0.0181
TAACACAA	0.43
AGACAAGA	0.081
GTACTCTA	0.112
GCTGCCGA	-0.273
CCGCCTAA	-0.221
AGTAGGTA	0.00861
ACAACGCT	0.166
GAACACTC	0.0939
CTTTCGCC	-0.236
AAGAGTTC	-0.202
GAAGATTC	0.0129
GATCGAAA	0.0287
GAAAGTTC	-0.218
ATAAGGTA	-0.176
TCCTTCGA	-0.178
GTAAAGCA	0.348

Sequence	PBM E-score
ATAAATAC	0.258
CCGGGCCA	-0.365
GACCCGTA	-0.0922
CTTGGTTA	-0.0282
CTACTAAA	-0.0704
CTGAGTGC	-0.148
GCGGGCGA	-0.156
CGAAACGA	-0.0669
AAGTTTTG	0.07
CAGTCGGA	-0.152
ATAGATGC	-0.151
AGATCTAC	0.117
TATGATGA	-0.00678
GTCAATAA	0.133
ACCTTATG	-0.0122
CGCTACAA	0.0292
CGGAGATC	-0.294
CAACTCTA	-0.0987
AATGCTAG	-0.0249
ATGTGGCA	-0.102
AGTTCGCC	-0.247
CGGACGGC	-0.134
AAGCGATA	-0.0673
AAGTAATG	0.196
CGATTGCG	-0.0285

Sequence	PBM E-score
CCTTTACC	-0.204
CTGCGCCC	-0.358
ACTTGATA	0.122
CTCACAGA	-0.0179
GTTATAAA	0.309
ATGTAGTG	0.332
AGTTGCAG	-0.198
AAGACTTG	0.0903
GTTAGTAA	0.221
AGTGGTGA	-0.163
AGCCATAG	-0.0793
ACAAAACA	0.306
CCGGACGC	0.0237
CTTCCCCC	-0.349
ATGCATAC	0.12
ATGAAAGA	-0.0107
CATGCCAA	0.138
TTACTCAA	0.271
AACTCCCG	-0.103
ACTCGGCC	-0.00218
GAGCCATC	-0.241
CCCTCCCG	-0.356
CCACGAAA	-0.129
TGGGCAAA	-0.148
CGACTCCG	-0.352

Sequence	PBM E-score
ACGCGTTC	0.284
AAATAATC	0.187
CTAAAATA	-0.0247
AAAGCGCA	-0.169
AGTCCAAA	-0.0805
ATTGTTGC	0.316
ACTTCAAT	0.0693
CTGGCGTC	-0.104
CACCCGAC	-0.0805
AAGCGCCA	-0.191
CCTTTTCA	-0.122
ATTCCCTA	-0.0424
AATAGTCT	-0.0416
TCGCAGAA	-0.166
AGGCCACT	-0.181
AACTGCCC	-0.176
CCCCAGCA	-0.176
GCAGTTGA	-0.157
ATGTCGGC	0.0863
TACCAAGA	0.0705
ACAGTTTC	0.073
CCAAAACG	0.0431
